PubChem BioAssay AID588795 (National Center for Advancing Translational Sciences (NCATS), 2011)
Where “and” joins values, the source holds several entries; their conditions need not be identical. Equal entries are not always repeated. Hit rate of the full screen: of about 390,000 compounds, about 1,400 (0.36%) were called active. Inconclusive results, whose numbers are uncertain, are shown with a selection of clear calls. Calls come from the whole dose curve; as a rule, active = well fitted inhibition curve with a large enough effect; inconclusive = small, poorly fitted or top-dose-only effect; inactive = no such curve, though single readings can be large or run the other way. Potencies of inconclusive entries are doubtful fits and often do not repeat. A structure can be active in one record and inactive in another.

Target: Flap endonuclease 1 (Homo sapiens) (UniProt P39748)
Sequence of UniProt P39748 (P39748 whole entry, looked up): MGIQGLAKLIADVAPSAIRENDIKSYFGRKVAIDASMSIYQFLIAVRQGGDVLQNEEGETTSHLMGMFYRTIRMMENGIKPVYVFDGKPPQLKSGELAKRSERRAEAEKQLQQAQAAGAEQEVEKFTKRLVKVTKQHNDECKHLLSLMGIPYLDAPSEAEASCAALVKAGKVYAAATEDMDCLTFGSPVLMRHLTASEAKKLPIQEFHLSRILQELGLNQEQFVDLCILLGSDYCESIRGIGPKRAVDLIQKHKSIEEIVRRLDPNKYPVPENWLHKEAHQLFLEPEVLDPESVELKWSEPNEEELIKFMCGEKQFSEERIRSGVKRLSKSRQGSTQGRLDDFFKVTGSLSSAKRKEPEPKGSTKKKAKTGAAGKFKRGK
Experiment: qHTS Assay for the Inhibitors of Human Flap endonuclease 1 (FEN1). Note: nearly all actives have a fitted effect of over 65% in size.
Details: Recombinant FEN1 flap cleavage, fluorescence, 15 min; series mostly up to 114 µM
Procedure, shortened: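 In this screen, 50 nM flap DNA substrate was added to 10 nM FEN1 pretreated with compound for 15 min at room temperature; cleavage was followed with reads at 0 and 15 min, and Hill fitting gave concentration–response parameters.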
Potency is the fitted concentration of half-maximal effect; tags give direction and shape of the fitted curve.

SMILES | Potency
NC(=O)c1cc2ccc(O)cc2oc1=Nc1ccccc1 | inactive
Cc1ccc(C(=O)COC(=O)c2cccc(NC(=O)c3ccc(Cl)cc3Cl)c2)cc1 | inactive
Cc1ccnc2c1ccc1c(C)ccnc12 | active: 25.1 µM
O=C(O)Cc1ccc(C(=O)CSc2ccccc2)s1 | inactive
CC(=O)c1c(C)[nH]c(C(=O)OC(C)C(=O)Nc2ccc(C)c(S(=O)(=O)N3CCOCC3)c2)c1C (stereo not drawn) | inactive
Fc1ccc(NC(=S)Nc2ccc3nccnc3c2)cc1 | inconclusive: 15.8 µM [inhibitor, single point]
CC(CCc1ccccc1)NC(=O)CSc1n[nH]c(-c2ccc(F)cc2)n1 (stereo not drawn) | inactive
COc1cc2c3nnc(-c4ccc(F)cc4)c-3cn(Cc3ccccc3)c2cc1OC | inconclusive: 89.1 µM [inhibitor, single point]
Cn1c(Nc2ccc(Cl)cc2)cc(=O)n(C)c1=O | inconclusive: 8.91 µM [inhibitor, partial curve, poor fit]
N#C/C(=C/c1cn(Cc2ccc(F)cc2)c2ccccc12)C(=O)Nc1cccc(Cl)c1 | active: 89.1 µM
Cc1ccc(Nc2nnc(SCc3cc(=O)n4ccsc4n3)s2)c(C)c1 | inactive
C[C@@H]1C(c2ccccc2)=NN(c2ccc(Br)cc2)[C@H]1C(=O)N1CCOC1=O | inconclusive: 89.1 µM [inhibitor, partial curve, poor fit]
O=[N+]([O-])c1cc(O)c2ncccc2c1 | inconclusive: 2.82 µM [inhibitor, full curve, poor fit]
COc1ccccc1CNC(=O)N1CCN(c2ccccc2Cl)CC1 | inconclusive: 89.1 µM [inhibitor, single point]
Nc1cccc2c(O)cc(S(=O)(=O)O)cc12 | active: 8.91 µM
CCN1CCCC1CNC(=O)CN(C)S(=O)(=O)c1ccc(Cl)cc1 (stereo not drawn) | inconclusive: 11.2 µM [inhibitor, partial curve, poor fit]
COc1ccc(CNC(=O)CN2C(=O)C(c3ccccc3)Oc3cccnc32)cc1 (stereo not drawn) | inactive
CCOC(=O)CSc1ncc(OC)c(Sc2ccc(Cl)cc2)n1 | inconclusive: 89.1 µM [inhibitor, partial curve, poor fit]
O=C1/C(=C\c2ccco2)CCC/C1=C\c1ccco1 | inconclusive: 79.4 µM [inhibitor, partial curve]
COc1cc(C(=O)Oc2c(Sc3ccc(C)cc3)c(C)nn2-c2ccccc2)cc(OC)c1OC | inconclusive: 7.94 µM [inhibitor, partial curve, poor fit]
O=C(Nc1ccc(Cl)cc1)N1CCN(c2ccc3nnc(-c4ccc(F)cc4)n3n2)CC1 | inconclusive: 28.2 µM [inhibitor, partial curve, poor fit]
COc1ccccc1-c1ccc(/C=C2\C=CC(=O)O2)o1 | inconclusive: 89.1 µM [inhibitor, single point]
Cc1cc(C)c(S(=O)(=O)NCC(c2cccs2)S(=O)(=O)c2ccccc2)c(C)c1 (stereo not drawn) | inactive

SMILES | Potency
Cc1ccc(/C=C/C(=O)c2cc(Br)ccc2OC(=O)c2ccco2)cc1 | inactive
O=C1c2ccccc2-c2n[nH]c3cccc1c23 | inconclusive: 20 µM [inhibitor, full curve] and inconclusive: 2.99 µM [inhibitor, partial curve, poor fit]
CSC1=C(C#N)C(=O)NC(c2ccccc2O)S1 (stereo not drawn) | inactive
O=C(/C=C/c1ccc(-c2ccccc2[N+](=O)[O-])o1)c1ccco1 | inactive
CN(C)c1cccc(C(=O)NNC(=O)NC2CCCCC2)c1 | inactive
COC(=O)[C@@]1(Cc2ccc(OC)cc2)[C@H]2c3cc(C(=O)N(C)C)n(Cc4ccc(OC(F)(F)F)cc4)c3C[C@H]2CN1C(=O)c1ccccc1 | inconclusive: 89.1 µM [inhibitor, partial curve, poor fit]
C/C(=N\NC1=NCCN1)c1ccc(N)c([N+](=O)[O-])c1 | inconclusive: 44.7 µM [inhibitor, partial curve, poor fit]
COc1ccc(NC2CCCN(C(=O)c3csc(C(C)C)n3)C2)cc1OC (stereo not drawn) | inactive
O=C(N/N=C/c1ccc(F)cc1)c1sccc1OCc1ccc(F)cc1 | inconclusive: 79.4 µM [inhibitor, partial curve, poor fit]
O=S1(=O)CCOC[C@H](c2ccccc2)N1Cc1ccc(F)cc1 | inconclusive: 100 µM [inhibitor, single point]
Cc1ccc(NC(=O)COC(=O)c2ccc([N+](=O)[O-])o2)cc1S(=O)(=O)N1CCCCCC1 | inconclusive: 39.8 µM [inhibitor, partial curve, poor fit]
CC1CCN(C(=O)COC(=O)c2ccc(Br)o2)CC1 | inactive
CCOC(=O)c1c2c3c(cccc3n(C)c1=O)C(=O)c1ccccc1-2 | inconclusive: 28.2 µM [inhibitor, full curve]
CC(C)c1ccc2oc(-c3ccc(N)cc3)nc2c1 | inconclusive: 56.2 µM [inhibitor, partial curve, poor fit]
Cc1ccc(N=C2NC(=O)/C(=C/C=C/c3ccco3)S2)cc1C | inconclusive: 79.4 µM [inhibitor, partial curve, poor fit]
O=C(CSc1ncc(S(=O)(=O)c2ccc(Cl)cc2)c(=O)[nH]1)Nc1cccc(C(F)(F)F)c1 | inactive
CCn1cc2nc(SCC(=O)Nc3ccccc3C(F)(F)F)n(Cc3ccc(C)cc3)c(=O)c2n1 | inconclusive: 44.7 µM [inhibitor, partial curve, poor fit]
COc1ccc(C2CC(=O)c3cc(-c4nc(-c5ccc(Cl)cc5)cs4)c(=O)[nH]c3C2)cc1OC (stereo not drawn) | inactive
CCSc1nnc(NC(=O)CSc2sc3c(O)cc(=O)[nH]c3c2C#N)s1 | active: 35.5 µM
O=C(CCn1c2c(c3ccccc31)CCCC2)NNC(=O)c1ccc(Cl)c([N+](=O)[O-])c1 | inactive
CCOc1cc(/C=C/C(=O)Nc2ccc(C(=O)NCCN(CC)CC)cc2)ccc1OCC(C)C | inconclusive: 50.1 µM [inhibitor, partial curve]
Cc1cc(C)n(-c2nnc(Nc3ccc(C)c(Cl)c3)c3ccccc23)n1 | inconclusive: 89.1 µM [inhibitor, single point]
Cc1c(Cl)cccc1NS(=O)(=O)c1ccc2c(c1)C1C=CCC1C(c1ccc(C(=O)O)cc1)N2 (stereo not drawn) | active: 25.1 µM

SMILES | Potency
CCc1ccc(Nc2ccc3nonc3c2[N+](=O)[O-])cc1 | inactive
Cc1nonc1NC(=O)CSc1nc(C23CC4CC(CC(C4)C2)C3)nc2ccccc12 | inconclusive: 12.6 µM [inhibitor, partial curve, poor fit]
Cc1ccc(C(=S)N2CCN(Cc3ccccc3)CC2)s1 | inactive
O=C(COC(=O)c1ccc(Cl)nc1)Nc1ccc(N2CCCCC2)cc1 | inactive
Cc1ccc(NNC(=O)C(O)(c2cccc(C(F)(F)F)c2)c2cccc(C(F)(F)F)c2)cc1 | inconclusive: 28.2 µM [inhibitor, partial curve, poor fit]
CN1CCN(CCCNC(=O)c2ccc(/C=C3\Sc4ccccc4N(Cc4ccc(F)cc4)C3=O)cc2)CC1 | inconclusive: 79.4 µM [inhibitor, single point]
O=C(NC1(C(F)(F)F)NC(=O)N(CCc2ccccc2)C1=O)c1ccc(Cl)cc1 (stereo not drawn) | inconclusive: 89.1 µM [inhibitor, partial curve, poor fit]
Clc1ccc(N=c2ssnc2Cl)nc1 | inconclusive: 35.5 µM [inhibitor, partial curve, poor fit]
CC1(C)Cc2c(sc(NC(=O)C(=O)N3CCOCC3)c2C(N)=O)CO1 | inactive
CSc1ncccc1C(=O)N1CCCC(C(=O)c2ccc3ccccc3c2)C1 (stereo not drawn) | inconclusive: 89.1 µM [inhibitor, partial curve, poor fit]
COc1ccc(Nc2nc(NCCN3CCOCC3)nc(Nc3ccc(OC)cc3)n2)cc1 | inconclusive: 44.7 µM [inhibitor, partial curve, poor fit]
Fc1ccccc1N1CCN(c2ncnc3nc[nH]c23)CC1 | inactive
COc1ccc(NC(=O)C(C)n2nnc3sc(-c4ccccc4)cc3c2=O)cc1Cl (stereo not drawn) | inconclusive: 89.1 µM [inhibitor, single point]
COC(=O)C1(Cc2ccc(O)cc2)OC(=O)C(O)=C1c1ccc(O)cc1 (stereo not drawn) | inconclusive: 35.5 µM [inhibitor, partial curve, poor fit]
COc1ccc(C2CC(O)(c3ccccc3)Oc3c(C)ccc(C(C)C)c32)cc1 (stereo not drawn) | inconclusive: 89.1 µM [inhibitor, partial curve, poor fit]
O=C(CSc1nc2ncc(Br)cc2[nH]1)c1cccc([N+](=O)[O-])c1 | inconclusive: 89.1 µM [inhibitor, single point]
COc1cc2c(-c3ccc(O)cc3)nc3c(c(C)nn3-c3ccccc3)c2cc1OC | inconclusive: 79.4 µM [inhibitor, partial curve]
COc1ccc2cc3c(N)c(C(=O)NCc4ccco4)sc3nc2c1 | inconclusive: 39.8 µM [inhibitor, partial curve, poor fit]
COc1ccc(O)c(/C=N/NC(=O)c2ccc(N3CCCC3=O)cc2)c1 | inactive
CC(C)=CCc1c(O)c(CC=C(C)C)c2c(c1O)C(=O)CC(c1ccc(O)cc1)O2 (stereo not drawn) | inconclusive: 20 µM [inhibitor, partial curve, poor fit]
O=C(O)c1cc(-c2ccco2)nc2ccc(Br)cc12 | active: 12.6 µM
Cc1ccc(OCCn2c(C3CC(=O)N(Cc4ccccc4)C3)nc3ccccc32)cc1 (stereo not drawn) | inconclusive: 50.1 µM [inhibitor, partial curve, poor fit]
